# Screen size: about 52,000 compounds; about 1,700 (3.3%) were called active. Cut-off read from the data, not from the text of the source: active = survival mostly below about 52% (no sharp cut-off); inactive = mostly above about 56%. The list shows a part of the results.
# System: Wild type
# Assay: growth inhibition of S. aureus wild type versus tarO mutant, primary screen, teichoic acid synthesis inhibitors, RN4220, OD600 (AID 463173)
# Details: S. aureus RN4220 wild type/DeltatarO growth, OD600, 18 h, active compounds read low, screened at 18.75 µg/mL (by protocol)
row,Compound,survival
1,CCOc1ccc(CNC(=O)c2ccc(-c3nc(CSc4ccc(C)cc4)c(C)o3)cc2)cc1,inactive: 63%
2,CCN(Cc1ccccc1)C(=O)Cn1c(=O)n(-c2ccc(OC)cc2OC)c(=O)c2c(C)c(C)sc21,inactive: 90%
3,CCOc1ccc(NC(=O)c2c(NC(=O)Cc3ccccc3)sc3c2CCCC3)cc1,inactive: 69%
4,Cc1ccc(CN2CCSc3ccc(C(=O)NCCc4ccccc4)cc32)cc1,inactive: 96%
5,COc1ccc(Cl)cc1NC(=O)C1CCN(c2nnc(C)c3c(C)n(-c4ccccc4)nc23)CC1,inactive: 66%
6,Cc1c(CC(=O)N2CCCCC2)c(=O)oc2c(C)c3occ(C(C)(C)C)c3cc12,inactive: 81%
7,CCCCOc1ccc(C(C)NC(=O)c2cccc(Nc3nc4ccccc4n4nnnc34)c2)cc1 (stereo not given),inactive: 76%
8,CCOc1ccc(CCNC(=O)CSc2n[nH]c(-c3ccccc3)n2)cc1OCC,inactive: 68%
9,CN(C)C=NC(=O)c1cc2c(n(-c3ccccc3)c1=O)CC(C)(C)CC2=O,inactive: 77%
10,O=c1n(Cc2cccc(F)c2)c2ccccc2c2nc(-c3ccccc3)nn12,inactive: 34%
11,COc1cccc(CSc2nc3n(n2)C(c2cccc(F)c2)C(C(=O)Nc2ccccc2C)=C(C)N3)c1 (stereo not given),inactive: 88%
12,Cc1ccc(O)c(NC(=O)c2cc(-c3ccc4c(c3)OCO4)on2)c1,inactive: 88%
13,Cc1cccc(N2CCN(C(=O)c3ccc(CS(=O)c4cccc(Cl)c4)o3)CC2)c1C (stereo not given),inactive: 63%
14,COc1ccc(CN(C(=O)Nc2cccc(Cl)c2)c2ccccn2)cc1OC,inactive: 81%
15,Cc1ccc(-c2[nH]c3ccccc3c2SCCNC(=O)c2ccc(S(=O)(=O)N(C)C)cc2)cc1,inactive: 127%
16,COCCNC(=O)CCC(=O)N1Cc2cccc(OC)c2Oc2ncccc21,inactive: 113%
17,CCSc1nnc2c(n1)OC(c1ccc(C)cc1)N(C(C)=O)c1ccccc1-2 (stereo not given),inactive: 71%
18,COc1ccc(CNC(=O)CCCN2C(=O)CSc3c2c(C)nn3-c2ccccc2)c(OC)c1,inactive: 71%
19,COc1ccc(Cl)cc1NC(=O)CCS(=O)(=O)c1cccc2nonc12,inactive: 120%
20,Cc1ccc(NC(=O)C(=O)NCC(c2cccnc2)N2CCOCC2)cc1Cl (stereo not given),inactive: 81%
21,CCOC(=O)C1=NNC2C(=O)N(CC)C(=O)C12 (stereo not given),inactive: 109%
22,CC(=O)NC1(c2ccccc2)CCN(C(=O)c2cccs2)CC1,inactive: 105%
23,CCc1ccc(NC(=O)Cn2ccn(Cc3ccccc3OC)c(=O)c2=O)cc1,inactive: 87%

row,Compound,survival
1,COc1cccc(-c2ccc3c(N)c(C(=O)c4ccc(Br)cc4)sc3n2)c1,inactive: 38%
2,O=C(Cc1ccc(Cl)cc1)Nc1nnc2n1CCS2,inactive: 73%
3,COc1ccc(C)cc1NC(=O)CCc1c(C)nn(-c2ccc(N3CCOCC3)nn2)c1C,inactive: 74%
4,Cc1ccc(NC(=O)c2c(C)oc3ncnc(N4CCCCC4)c23)cc1Cl,inactive: 80%
5,Cc1ccc(-n2nc(C)c3c(C)cc(=O)n(CC(=O)N4CCCc5ccccc54)c32)cc1,inactive: 74%
6,CCn1cc(S(=O)(=O)c2cccc(Cl)c2)c(=O)c2cc(F)c(N3CCC(C)CC3)cc21,inactive: 57%
7,O=C(COCc1cc(-c2cccs2)on1)NCc1ccc(Cl)cc1,inactive: 75%
8,Cc1cc(C)c(NS(=O)(=O)c2ccc(-c3cnc(C4CC4)o3)cc2)c(C)c1,inactive: 95%
9,COc1ccc(NC(=O)C(=O)NCC2(c3ccc(OC)c(OC)c3)CCCC2)cc1,inactive: 93%
10,COc1cccc(CNC(=O)Cc2csc3ccccc23)c1OC,inactive: 82%
11,CCCOC(=O)c1c(NC(=O)C2c3ccccc3Oc3ccccc32)sc2c1CCCC2,inactive: 73%
12,COc1ccc(NC(=O)CCCSc2nc(-c3ccco3)cc(C(F)(F)F)n2)c(OC)c1,inactive: 38%
13,COc1cccc(OCc2nc3ccccc3n2Cc2ccccc2C)c1,inactive: 87%
14,CCOc1ccc(N(CC)C(=O)C2CCN(S(=O)(=O)c3cccc4nonc34)CC2)cc1,inactive: 82%
15,COc1ccc(CCC(=O)NC2CC(=O)N(c3cccc(F)c3)C2)cc1 (stereo not given),inactive: 132%
16,N/C(=N/c1nc2ccccc2o1)NC(=O)C(Cc1ccccc1)N1C(=O)c2ccccc2C1=O (stereo not given),inactive: 132%
17,CN(CC(=O)O)C(=O)c1ccco1,inactive: 104%
18,CCC(=O)n1nc(-c2cccnc2)nc1NCc1ccc(F)cc1,inactive: 87%
19,N#CC(C#N)=C(C(C#N)=C1Nc2ccccc2N1)c1ccccc1F,inactive: 79%
20,Clc1cccc(CNc2cc(-c3ccccc3)nc3nncn23)c1,inactive: 96%
21,CCc1ccccc1NC(=O)Cn1nc(C(F)(F)F)c2c1CCCC2,inactive: 84%
22,Cc1cc(C)c(NC(=O)CCn2c(=O)c3cccn3c3cccnc32)c(C)c1,inactive: 95%
23,COc1ccc(CCNC(=O)c2ccc3c(c2)OCO3)cc1,inactive: 112%

row,Compound,survival
1,OCCN1CCN(C(c2ccccc2Cl)c2sc3nc(-c4ccco4)nn3c2O)CC1 (stereo not given),inactive: 65%
2,Cc1cccc(N2CCn3c2nc2c3c(=O)n(CCc3ccccc3)c(=O)n2C)c1,inactive: 110%
3,COc1cccc(-c2cn3c(n2)sc2cc(C(=O)NCCc4ccc(OC)c(OC)c4)ccc23)c1,inactive: 43%
4,N#CC1=C(N)N(c2cccc(Cl)c2)C2=C(C(=O)CCC2)C1c1cc(CN2CCOCC2)cs1 (stereo not given),inactive: 87%
5,CC(C)N1C(=O)C(O)(c2c[nH]c3ccccc23)c2ccccc21 (stereo not given),inactive: 119%
6,CCCS(=O)(=O)N1CC(=O)N(c2cc(C)ccc2C)C(C)(C(=O)NC2CCCCCC2)C1 (stereo not given),inactive: 127%
7,Cc1cccc(N2C(=O)CS(=O)(=O)C23C(=O)N(Cc2c(F)cccc2Cl)c2ccccc23)c1 (stereo not given),inactive: 80%
8,CSc1cccc(NC(=O)CN2CCN(Cc3ccccc3C)S2(=O)=O)c1,inactive: 136%
9,CC1Oc2ccccc2N(CC(=O)NCc2ccccc2)C1=O (stereo not given),inactive: 105%
10,Cc1cc(N)c(-n2cc3c(c2-c2ccc(Br)cc2)c(=O)n(C)c(=O)n3C)cc1C,inactive: 77%
11,Cc1cc(C)cc(Oc2coc3cc(OCC(=O)NC4CCCCC4)ccc3c2=O)c1,inactive: 149%
12,Cc1ccc2onc(CNC(=O)NCc3cccc(Cl)c3)c2c1,inactive: 97%
13,CCOc1ccc(-c2cc(C(=O)Nc3ccc(NC(C)=O)cc3)no2)cc1,inactive: 84%
14,O=C(O)CCCNc1cc(N2CCN(C3CCCCC3)CC2)c2noc3c2c1C(=O)c1ccccc1-3,inactive: 85%
15,CCOc1ccc(OCC)c(NC(=O)CC(C)n2nc(C)cc2C)c1 (stereo not given),inactive: 77%
16,Cc1ccc(CN(C(=O)c2ccccc2F)c2ccccn2)o1,inactive: 83%
17,O=C(c1cccn2c(=O)c3cc(Cl)ccc3nc12)N1CCN(c2ccccc2F)CC1,inactive: 71%
18,CCOc1ccc(NC(=O)CC2C(=O)N(c3ccc(C)cc3)C(=O)N2CCC2=CCCCC2)cc1 (stereo not given),inactive: 78%
19,Nc1nonc1-c1nc2ccccc2n1Cc1cccc(Cl)c1,inactive: 87%
20,CCOc1ccc(-n2nc(CO)c(C(=O)NCCCc3ccccc3)n2)cc1,inactive: 110%
21,CC(=O)Nc1ccc(S(=O)(=O)N2CCC(c3nnnn3-c3ccccc3)CC2)cc1,inactive: 90%
22,CCOc1ccc(C(=O)Nc2cccc(C(=O)OCc3cc(=O)n4nc(C5CC5)sc4n3)c2)cc1,inactive: 51%
23,O=C1CCC(=O)N1CNc1ccccc1,inactive: 118%

row,Compound,survival
1,COc1ccc(Cl)cc1NC(=O)Cn1cc(C(=O)c2ccc(C)cc2)c(=O)c2ccc(C)nc21,inactive: 72%
2,Cc1ccccc1CN1C(=O)C2(c3ccccc31)N(c1ccccc1)C(=O)CS2(=O)=O (stereo not given),inactive: 146%
3,COc1ccc(CCNC(=O)c2c(O)nc3ccccn3c2=O)cc1,inactive: 83%
4,CCOC(=O)c1ccccc1NC(=O)CSc1nc(=O)[nH]c2c1CCC2,inactive: 77%
5,C=Cc1ccc(Cn2c(C)c(CNCCc3ccccc3C)c(C(=O)O)c2C)cc1,inactive: 81%
6,O=C(COc1ccc(Cl)cc1)Nc1ccc(C(=O)OCc2cc(=O)n3ccsc3n2)cc1,inactive: 75%
7,FC(F)(F)Oc1ccc2c(c1)NC(c1ccncc1)=NC(c1cccs1)=N2,inactive: 94%
8,Cc1ccc(NC(=O)CCSc2nc(-c3ccco3)cc(C(F)(F)F)n2)cc1F,inactive: 61%
9,C=CCc1cccc2cc(C(=O)Nc3ccc(F)cc3)c(=O)oc12,inactive: 71%
10,COc1ccc2oc(=O)c(C(=O)Nc3ccc(C(=O)O)cc3)cc2c1,inactive: 133%
11,Cc1ccn2c(=O)c(C(=O)NCCCN3CCCCC3C)c(O)nc2c1 (stereo not given),inactive: 90%
12,CCOC(=O)N1CCN(Cc2nc3cc(NC(=O)c4ccc(OC)cc4)ccc3n2C(C)C)CC1,inactive: 89%
13,COc1ccc(OCC(=O)Nc2nnc3n2CCS3)cc1,inactive: 77%
14,Cc1ccc(NC(=O)C(C)n2nnc3sc4c(c3c2=O)CCCC4)cc1Cl (stereo not given),inactive: 67%
15,Cc1c(Cl)cccc1NC(=O)c1ncoc1-c1ccco1,inactive: 85%
16,CC(=O)c1ccc(NC(=O)CCCSc2nc(-c3ccco3)cc(C(F)(F)F)n2)cc1,inactive: 71%
17,CCc1ccc(NC(=O)CSc2nc3ccccc3c(=O)n2CCNC(C)=O)cc1,inactive: 82%
18,CN1CC2(C)CN(C(=O)c3ccccc3Cl)CC(C)(C1)C2,inactive: 112%
19,Oc1ccc(NCc2ccccc2OCc2ccccc2F)cc1,inactive: 89%
20,COc1ccccc1NC(=O)CCN1CCCCC1,inactive: 71%
21,CCOc1ccc(OCC)c(NC(=O)C2CCN(c3nnc(-n4cccc4)s3)CC2)c1,inactive: 63%

# From PubChem BioAssay AID463173 (ICCB-Longwood Screening Facility, Harvard Medical School, 2010)
